Source: PubChem BioAssay AID1645887 (National Center for Advancing Translational Sciences (NCATS), 2021)
Values joined by “and” are separate entries in the source; they are usually repeats but may differ in a detail not shown here. Equal entries are not always repeated. Hit rate of the full screen: of about 16,000 compounds, about 40 (0.2%) were called active. About 1% were inconclusive and are not listed. The call rests on the fitted dose curve; in most records, active means well fitted activation curve with a large enough effect; inconclusive means small, poorly fitted or top-dose-only effect, or another doubt; inactive means no such curve, though single readings can be large or run the other way. This is one part of the list.

Each compound was assayed against Rap guanine nucleotide exchange factor 4 (Homo sapiens) (UniProt Q8WZA2) (assay: Validation qHTS for agonist of cAMP-regulated guanine nucleotide exchange factor 4 (EPAC2)). Conditions: EPAC2 Rap1B BODIPY-GDP exchange, fluorescence; activation: active compounds read high.
Summary of the method: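 Signal normalized against 6.5 mM cAMP as agonist control. Mix of EPAC2 (100 nM), RAP1B-BODIPY-GDP (250 nM) and GDP (50 uM) was read kinetically at 480/540 nm, every 5 min over 30 min, after 5 min room-temperature incubation with compound.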
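Further: exchange makes BODIPY-GDP fluorescence drop when released from Rap1B; series mostly up to about 150 µM.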
On the % scale 0 is the no-effect control and ±100 the full control effect.

UniProt Q8WZA2, sequence (Q8WZA2 whole entry, looked up): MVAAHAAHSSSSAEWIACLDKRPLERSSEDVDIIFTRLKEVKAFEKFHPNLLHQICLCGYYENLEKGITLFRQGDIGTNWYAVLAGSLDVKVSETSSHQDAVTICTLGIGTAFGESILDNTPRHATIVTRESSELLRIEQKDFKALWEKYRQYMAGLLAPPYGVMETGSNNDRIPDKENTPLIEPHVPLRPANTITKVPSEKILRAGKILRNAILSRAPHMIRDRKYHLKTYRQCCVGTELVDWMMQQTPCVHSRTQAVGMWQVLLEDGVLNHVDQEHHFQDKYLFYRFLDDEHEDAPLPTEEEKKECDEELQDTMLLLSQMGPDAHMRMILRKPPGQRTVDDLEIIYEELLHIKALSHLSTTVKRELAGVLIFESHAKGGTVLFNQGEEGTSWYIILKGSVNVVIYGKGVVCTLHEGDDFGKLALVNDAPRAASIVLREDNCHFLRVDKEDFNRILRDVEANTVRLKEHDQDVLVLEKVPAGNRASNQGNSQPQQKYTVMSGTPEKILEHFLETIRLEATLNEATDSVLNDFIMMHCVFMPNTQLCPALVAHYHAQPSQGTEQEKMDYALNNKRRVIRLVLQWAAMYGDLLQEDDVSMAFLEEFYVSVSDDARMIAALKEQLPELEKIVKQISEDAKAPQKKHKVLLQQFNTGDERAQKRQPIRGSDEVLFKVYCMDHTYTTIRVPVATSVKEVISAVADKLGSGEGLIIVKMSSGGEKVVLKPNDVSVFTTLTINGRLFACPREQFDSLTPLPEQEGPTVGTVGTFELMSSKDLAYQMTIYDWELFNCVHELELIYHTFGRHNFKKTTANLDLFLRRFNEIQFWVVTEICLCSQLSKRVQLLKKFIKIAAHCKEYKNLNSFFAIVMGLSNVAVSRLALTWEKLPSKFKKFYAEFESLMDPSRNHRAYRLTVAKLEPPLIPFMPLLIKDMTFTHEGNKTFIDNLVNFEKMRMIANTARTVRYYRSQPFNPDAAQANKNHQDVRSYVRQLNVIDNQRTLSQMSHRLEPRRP

activation, inactive:
c1nc(NC2CCNCC2)c2cc(-c3ccoc3)ccc2n1 -3.52%
Cc1cc(Cl)ccc1OCC(=O)N1CCOc2ccc(CN3C[C@@H](C)O[C@@H](C)C3)cc2C1 1.02%
COc1cc(=O)n2c(c1C(=O)N1CCc3ccccc3C1)CCN(Cc1ccc(CO)o1)CC2 8.51%
COCC(=O)N1CCC[C@@]2(CCN(C(=O)Nc3ccc(OC)cc3)C2)C1 -17.6%
Cc1nc(N=Nc2ccc(C(=O)O)cc2)c(COP(=O)(O)O)c(C=O)c1O -19.7%
CC1CCC(NC(=O)N(CCCl)N=O)CC1 (stereo unspecified) -23%
CCNC(=O)c1cc(NC(=O)COC)cc2nc(-c3ccncc3)n(C)c12 5.24%
Cn1cc(-c2nc3cnc(Oc4cccc(Cl)c4)nc3n(CCC#N)c2=O)c2ccccc21 5.52%
Nc1cccc(/C=C/c2ccnc3ccccc23)c1 -2.14%
COc1ccc2c(c1)OC[C@H]1c3cc4c(cc3O[C@@H]21)OCO4 -8.64%
Oc1ccccc1C=NCc1ccccc1 0.802%
CC(C)CN1CC2(CCN(C(=O)c3cccc(F)c3)CC2)C1 -12.2%
COc1ccccc1CNc1nc(-c2ccc(C(=O)N(C)C)cc2)nc2ccccc12 -6.06%
CC(=O)NC(C(=O)O)C(C)(C)SN=O (stereo unspecified) -0.864%
Nc1ccc(S(=O)(=O)Nc2ccc(Cl)nn2)cc1 -17.3% and -3.29% and 4.11%
COc1ccc(Oc2ncc3nc(C)c(=O)n(C[C@H]4CCCO4)c3n2)cc1 -5.06%
CCCc1cc(OC)c2c(c1)OCO2 -10.5%
COC(=O)C1CCN(Cc2ccc3c(c2)CN(C(=O)C2CCCN(c4ccccn4)C2)CCO3)CC1 (stereo unspecified) -17.4%
Clc1ccccc1-c1nc(Nc2ccncc2)c2ccccc2n1 -31.7%
N#Cc1cccc(-c2nc(N3CCNCC3)c3ccccc3n2)c1 -4.85%
COc1ccc2[nH]cc(CCNc3cc(-c4ccccc4C(F)(F)F)ncn3)c2c1 16%
OC[C@H]1O[C@@H](n2cnc3c(N[C@H]4C[C@H]5CC[C@@H]4C5)ncnc32)[C@H](O)[C@@H]1O 1.6%
Cc1c(C(=O)NCC2Cc3cccc(-c4cncnc4)c3O2)c(-c2ccccc2)nn1-c1ccccc1 (stereo unspecified) -8.2%
O=C(c1cnccn1)N1CCC[C@@]2(CCN(c3ccccn3)C2)C1 -0.181%
O=C([C@@H]1CC=C[C@@H]2CCN(C3CCCCC3)C(=O)[C@@H]21)N1CCN(c2ccccc2)CC1 -18%
CC(=O)N[C@@H](CSC/C=C(\C)CCC=C(C)C)C(=O)O -15.3% and 3.11%
COc1cccc(C(=O)NCc2nc(-c3cccc(NC(=O)c4ccoc4C)c3)oc2C)c1OC -1.47%
O=C(NCC1(N2CCOCC2)CCCCCC1)c1cnn(-c2nccc(-c3ccco3)n2)c1C1CC1 -3.02%
COCCn1c(=O)c(-c2cn(C)c3ccccc23)nc2cnc(Oc3ccccc3)nc21 -8.01%
COC(=O)c1cc(CNC(=O)c2cccc(F)c2)cc(NC(=O)c2ccccc2OC)c1 15%
Cn1cccc1C(=O)N1CCC2(CCCN(Cc3ccc(C#N)cc3)C2)CC1 -14.5%
O=C1NC(=O)C(Cc2ccccc2)(C2CCN(Cc3cccn3-c3cccnc3)CC2)N1 (stereo unspecified) 2.94%
O=P(O)(O)OCC(O)CO (stereo unspecified) 7.31%
NCC1CCCCC1CC(=O)O (stereo unspecified) 6.84%
COC(=O)CCC[N+](C)(C)C -12.2%
CC(=O)NCCNc1nc(-c2c(C)noc2C)nc2ccccc12 -0.0513%
O=C(O)Cc1ccc(-c2ccccc2)cc1 15.3%
Clc1ccccc1-c1ccc2ncnc(NC3CCNCC3)c2c1 -3.32%
C[C@@](N)(C(=O)O)[C@@H]1C[C@@H]1C(=O)O -5.81%
C[C@@H]1C[C@H]2[C@@H]3C[C@H](F)C4=CC(=O)C=C[C@]4(C)[C@@]3(F)[C@@H](O)C[C@]2(C)[C@@]1(O)C(=O)CO 1.73%
CC(=O)N1CCC2(CC1)CCN(C(=O)Nc1cccc(F)c1)CC2 -7.32%
CS(=O)(=O)N1CCC2(CCN(C(=O)Nc3cccc(C#N)c3)CC2)CC1 -0.804%
COc1ccc(NC(=O)N2CCCC3(CCN(C(C)=O)CC3)C2)cc1 -9.58%
O=c1c(-c2cccs2)nc2cnc(N3CCOCC3)nc2n1Cc1ccc(F)cc1 -5.83%
Cc1cccc2nc(CNC(=O)CN3Cc4cc(Cl)ccc4OC(C)C3)cn12 (stereo unspecified) -9.24%
C[C@@H](NCc1cc(Br)cc2[nH]c(=O)c(=O)[nH]c12)P(=O)(O)O -16.2%
CNC(=O)[C@@H]1C[C@@H](NCc2cccc(Oc3ccccc3)c2)CN1C(C)C -11.3%
O=Cc1ccccc1-c1cn(CCCOCc2ccccc2)nn1 -9.9%
O=C(O)c1cn(-c2ccc(F)cc2)c2cc(N3CCNCC3)c(F)cc2c1=O -25.1%
CCCCCCCCCCCCCCC[C@@H](O)[C@H](CO)NC(C)=O -5.46%
C#C[C@]1(O)CCC2C3CCC4=Cc5oncc5C[C@@]4(C)C3CC[C@@]21C (stereo partly specified) 19%
COc1ccc(C(=O)NCCN2Cc3ccccc3OC(c3ccsc3)C2)c(OC)n1 (stereo unspecified) 9.15%
Cc1cnc(C)c(-c2cc(F)cc3c2OC(CNC(=O)CN2CCCC2)C3)n1 (stereo unspecified) -8.84%
CN(C)C(=O)c1ccc(-c2ccc3ncnc(N4CCNCC4)c3c2)cc1 -0.601%
Cc1nc2ccc(C(=O)N3CCc4c(cnc(C)c4CNC(=O)/C=C/c4cccs4)C3)cc2nc1C 3.96%
Nc1nc2c([nH]c(=S)n2C2OC(CO)C(O)C2O)c(=O)[nH]1 (stereo unspecified) -15.7%
